Data on 25 compounds can be found in ChEMBL document CHEMBL4888484, “Replenishing the malaria drug discovery pipeline: Screening and hit evaluation of the MMV Hit Generation Library 1 (HGL1) against asexual blood stage Plasmodium falciparum ,using a nano luciferase reporter read-out” (2022).

Screen size: about 150,000 compounds; about 540 (0.36%) showed an effect of 50% or more. The list shows a part of the results.

The test system of the assay is Plasmodium falciparum. Nature of the assay: Primary screen in NF54 nanoGlo assay, in single point, at 2uM, 72h; a lower Z score goes with more inhibition. It counts as functional, Erythrocyte. The note with it: timepoint 72 hour.
For the compound `COC(=O)[C@H]1CC12CCN(S(C)(=O)=O)CC2`, the % Inhibition (in general, the relative decrease from the control value, in per cent) is listed as -15% and the Z score worked out at 1.8.

As for `Cc1nn(Cc2sncc2Br)c(=O)s1`, the “% Inhibition” value was -33% and the Z score stood at 3.87.

In the case of `COC1CC2C(=O)N(C(c3ccccc3)C(C)C)C(=O)N2C1` (stereo not given), the “% Inhibition” value was -6% and the Z score was determined as 0.83.

For the compound `Nc1c(NC(=O)NC2CCCCC2)c(-c2ccccc2)nn1-c1ccccc1F`, the “% Inhibition” value is recorded as -3% and the Z score is recorded as 0.5.

`Cc1nc2n(c1C(=O)N(C)C)CCN(C(=O)c1cc(=O)[nH]c3ccccc13)C2`: the “% Inhibition” value is -4% and the Z score came to 0.64.

`CCOc1ncccc1-c1cc(C)c(C#N)c(C)n1`: the “% Inhibition” value was -2% and the Z score amounted to 0.21.

For the compound `CCCCNC(=O)C(=O)NCc1ccc(C)cc1`, the “% Inhibition” value is 4% and the Z score is reported as -0.57.

As for `CCn1cc(OC(=O)c2ccncc2Cl)cn1`, the “% Inhibition” value is 5% and the Z score is recorded as -0.71.

Consider `Cc1nnc(N2CCN(c3ccccn3)CC2)c(C#N)c1C`, for which the “% Inhibition” value is -23% and the Z score is 2.07.

Take `CC1CN(C(=O)c2cc(Cl)ccc2OCc2ccccc2)CC(C)O1` (stereo not given): the “% Inhibition” value was -9% and the Z score was 1.

With `CC1CCc2ccccc2C1NC(=O)CCC(=O)N1CCC(O)CC1` (stereo not given), the “% Inhibition” value was found to be 4% and the Z score is -0.56.

Consider `O=C(c1cccc(F)c1F)N(CC1CCN(Cc2ccccc2F)CC1)C[C@H]1CCCO1`, for which the “% Inhibition” value is given as -15% and the Z score is recorded as 2.17.

Regarding `C[C@@H](CC1CCCCC1)NCCCC(=O)N(C)C`, the “% Inhibition” value is recorded as -11% and the Z score is reported as 1.94.

Regarding `Cc1[nH]ccc1C(=O)NCc1nccc(C(F)(F)F)n1`, the “% Inhibition” value is -10% and the Z score came out at 1.31.

For `Cc1cc2nccc(NC(=O)NCc3cc(C4CC4)no3)n2n1`, the “% Inhibition” value was -4% and the Z score stood at 0.43.

On to `Cc1ccc(NC(=O)CN2CCN(C3CCCCC3)C(=O)C2=O)cc1C`, for which the “% Inhibition” value is listed as -4% and the Z score worked out at 0.61.

In the case of `CN(C)c1ccccc1C(=O)NC[C@@H](c1ccncc1)N1CCOCC1`, the “% Inhibition” value is listed as 6% and the Z score was -0.95.

Consider `CC(C)=CCn1c(-c2ccccc2Cl)cn2cc(C(=O)N3CCCC3)nc2c1=O`, for which the “% Inhibition” value was -16% and the Z score came to 1.91.

Turning to `CC[C@H](C)n1ncc(NC(=O)N2CCN(c3cccs3)CC2)c1C`, the “% Inhibition” value is -14% and the Z score worked out at 1.45.

With `CCC(O)CN(Cc1cccc(Cl)c1)CC1CC(c2ccccc2)=NO1` (stereo not given), the “% Inhibition” value was -3% and the Z score is recorded as 0.34.

For the compound `COc1ccc(-c2nnc3n2CCOC3)c(OC)c1`, the “% Inhibition” value worked out at 2% and the Z score is given as -0.32.

`O=C(Nc1ccc(Cl)c(Cl)c1)N1CC(N2C(=O)C3CC=CCC3C2=O)C1` (stereo not given): the “% Inhibition” value was -5% and the Z score was 0.61.

On to `COC(=O)C[C@H](N)c1cccc(Cl)c1`, for which the “% Inhibition” value is 11% and the Z score is listed as -1.75.

`COc1ccc2cc(-c3nc(CCN(C)C(=O)c4cccc(Cl)c4)no3)[nH]c2c1`: the “% Inhibition” value is reported as -9% and the Z score turned out to be 1.75.

Take `COCCCN(C)C(=O)N1Cc2ccc(Br)cc2C1`: the “% Inhibition” value is listed as -14% and the Z score turned out to be 1.95.
